Measurements as given in PubChem BioAssay AID686979 (National Center for Advancing Translational Sciences (NCATS), 2013).
The campaign covered roughly 420,000 compounds. About 50,000 (12%) were called active. Inconclusive means that the source gave no clear call. Such entries were picked first, then a sample of the others. Calls come from the whole dose curve; as a rule, active = well fitted inhibition curve with a large enough effect; inconclusive = small, poorly fitted or top-dose-only effect; inactive = flat fitted curve, though single readings scatter. No potency is given beside an inconclusive call; the fits are too rough.

experiment: qHTS for Inhibitors of human tyrosyl-DNA phosphodiesterase 1 (TDP1): qHTS in cells in presence of CPT; conditions: chicken DT40 Tdp1-/-;hTDP1 cells + 20 nM CPT, ATP luminescence, 48 h; activity change, negative = growth inhibition: at 46.2 µM (top of the series) unless noted; note: nearly all actives have a fitted effect of over 55% in size
Summary of the method: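 Chicken DT40 Tdp1-/- cells complemented with human TDP1, 400 cells/well, exposed to compounds plus 20 nM camptothecin for at least 48 h at 37 C; viability read as ATP content by CellTiter-Glo luminescence.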
% is set by controls: 0 for no effect and ±100 for the full control effect; potency is the fitted concentration of half-maximal effect; tags give direction and shape of the fitted curve.

Structure (SMILES)	activity change, negative = growth inhibition	Potency
CC(C)Nc1nc(NC(C)C)nc(C(N)=O)n1	inactive: -16.1%	–
Cc1ccc(C)c(Nc2nc(N)c3ccccc3n2)c1	–	inconclusive [inhibitor, single point]
COc1ccc(CC(=O)NCCc2csc(-c3cccc(C)c3)n2)cc1	–	inconclusive [inhibitor, single point]
COc1ccc(C)cc1NS(=O)(=O)c1c(C(=O)N2CCCCCC2)c(C)n(C)c1C	–	inconclusive [inhibitor, single point]
O=C(CNc1ccc(F)cc1)c1ccccc1	–	inconclusive [inhibitor, partial curve, poor fit]
OCCN1CCN(Cc2ccc3c(c2)CN(Cc2cnc(-c4ccccc4)s2)CCO3)CC1	inactive: 4.55%	–
Cc1cc(C)c(S(=O)(=O)N/N=C/c2ccc([N+](=O)[O-])o2)c(C)c1	–	active: 23.1 µM
O=C(CSc1nc2c(cnn2-c2ccccc2)c(=O)[nH]1)N1CCOCC1	–	inconclusive [inhibitor, single point]
Cc1ccc(C(C)C)cc1C(=O)CC1(O)C(=O)N(C)c2ccccc21 (stereo not drawn)	–	inconclusive [inhibitor, single point]
CCN(c1ccc(NC(=O)COC(=O)CCc2nc3ccccc3n2-c2ccccc2)cc1)C(C)C	–	inconclusive [inhibitor, single point]
N#CC1=C(N)C2=CCCC[C@H]2[C@H](c2ccc(Br)cc2)C1(C#N)C#N	–	inconclusive [inhibitor, single point]
CCCCN1CC(COCc2ccccc2)Oc2cccc(Oc3cc(C)c(C)c(C)c3)c2S1(=O)=O (stereo not drawn)	–	active: 7.31 µM
COc1cccc(-n2nnc3c(=O)n(Cc4c(F)cccc4Cl)cnc32)c1	inactive: -7.92%	–
C/C(N)=C(/C#N)C(=O)COC(=O)c1ccc(OCC2CCCO2)cc1 (stereo not drawn)	inactive: 10.6%	–
Cc1nn(Cc2ccccc2)c2c1C(c1ccc(Cl)cc1)C(C#N)=C(N)O2 (stereo not drawn)	–	active: 18.4 µM
CCOC(=O)CSc1nnc(-c2ccccc2OC)o1	inactive: 0.0599%	–
Cc1nc(-c2ccccc2)sc1-c1ccc(SCC(=O)NCc2ccc(Cl)cc2)nn1	–	inconclusive [inhibitor, partial curve, poor fit]
COc1ccc(S(=O)(=O)N2CCN(C(=O)c3sccc3-c3ccccc3)CC2)cc1	–	active: 14.6 µM
COc1ccc(NC(=S)N2CCN(Cc3ccccc3)CC2)cc1	inactive: 3.82%	–
O=C(Nc1nccs1)c1ccc2sc([C@H]3C[C@H](O)[C@@H](CO)O3)nc2c1	inactive: -27.5%	–
CC(=O)c1cccc(NC(=O)CC(c2ccc(C)cc2)N2Cc3ccccc3C2=O)c1 (stereo not drawn)	–	inconclusive [inhibitor, single point]
COc1cccc(/C=C/C(=O)c2ccc(C)c([N+](=O)[O-])c2)c1	–	inconclusive [inhibitor, single point]
CN(C)c1ccc(CNc2nc3cc(-c4ccc(F)cc4)sc3c(=O)n2C)cc1	–	inconclusive [inhibitor, partial curve]
Cc1ccc(-n2c(=O)[nH]c3cc(C(=O)NCc4ccccc4)ccc3c2=O)cc1	inactive: -8%	–

Structure (SMILES)	activity change, negative = growth inhibition	Potency
C=Cn1c(C(=O)O)ccc1-c1ccc(OC)cc1	inactive: -3.64%	–
Cc1cc(Nc2ccccc2C(=O)O)nc2nc3ccccc3c(=O)n12	–	inconclusive [inhibitor, partial curve]
Cc1oc(-c2ccccc2Cl)nc1Cn1c(SCc2cccc(F)c2)nc2cccnc21	–	active: 23.1 µM
CCCCC(=O)N/N=C(\C)CC(=O)Nc1cc(Cl)ccc1OC	inactive: -9.87%	–
CN1CCOCCOc2ccccc2OCCOCC1	inactive: 9.79%	–
COc1ccc(-c2cc(C#N)nc(N3CCNCC3)n2)cc1	–	inconclusive [inhibitor, single point]
O=C(Cc1c(Cl)cccc1Cl)Nc1ccncc1	inconclusive: -32.5% [inhibitor]	–
COc1cc2ncc(C(=O)c3ccc(C)cc3)c(N3CCCCC3)c2cc1OC	–	active: 11.6 µM
Cc1ccc(S(=O)(=O)/N=C2\C=C(Nc3ccc(O)cc3)C(=O)c3ccccc32)cc1	–	active: 2.06 µM
CCOc1nc(C#N)nc(N2CCCCC2)n1	–	active: 20.6 µM
CC(CNC(=O)c1nnc(Cc2ccc(F)cc2)o1)c1ccccc1 (stereo not drawn)	–	inconclusive [inhibitor, partial curve]
Cc1cc(Br)cn2c(Cc3ccccc3)c(-c3ccc(F)cc3)nc12	–	inconclusive [inhibitor, single point]
COc1cc2c(cc1OC)C(=O)N1[C@H]3c4ccccc4OC[C@@H]3[C@H](c3ccccc3)[C@]1(C)C(=O)N2	–	inconclusive [inhibitor, single point]
Cc1ccnc(N2CCC(C(=O)Nc3ccc(Oc4ccccc4)cc3)CC2)n1	–	inconclusive [inhibitor, partial curve]
O=C(COc1ccccc1)N/N=C/c1ccc2c(c1)OCO2	inactive: 10.4%	–
COc1ccc(/C=C/C(=O)CC(=O)/C=C/c2cccc(O)c2OC)cc1O	–	active: 6.64 µM
CCn1c2ccccc2c2cc(NS(=O)(=O)c3ccccc3C)ccc21	–	inconclusive [inhibitor, single point]
Cc1ccc2nc(NC(=O)c3ccc(N4C(=O)CCC4=O)cc3)sc2c1	inactive: 19.2%	–
NCCCCNCCCN	–	inconclusive [inhibitor, single point]
COc1cc(C(=O)Nc2ccc(C)cc2)c(-n2cnnn2)cc1OC	inactive: 0.725%	–
Cc1cccc(NC(=O)CCC(=O)N/N=C/c2cc([N+](=O)[O-])ccc2O)c1	–	inconclusive [inhibitor, single point]
C#CCNC(=O)C1=C[C@@H](c2coc3ccccc3c2=O)[C@H](CCCO)[C@@H](OCC)O1	inactive: 10.9%	–
COc1ccc(NC(=O)CCCn2c(=O)c3sccc3n(Cc3cccc(C)c3)c2=O)cc1	–	inconclusive [inhibitor, single point]
COc1ccc(Cn2cc(C(=O)c3ccc(C)c(C)c3)c(=O)c3ccccc32)cc1	–	inconclusive [inhibitor, single point]
